This note sets out measurements from paper PMC6919601, “Identification of Plasmodium dipeptidyl aminopeptidase allosteric inhibitors by high throughput screening” (PLoS ONE, 2019).

The campaign covered roughly 110,000 compounds. About 230 (0.21%) showed an effect of 50% or more. This is one part of the list.
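Also: 30 min substrate incubation versus DMSO and 10 µM JCP410 controls.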

For this test, the target named is DPAP1 (Plasmodium falciparum, UniProt Q8IIJ9). Briefly: primary screen, percent inhibition; read by cleavage of a fluorogenic dipeptide substrate; higher = more effect of the substance. On the set-up: species or system P. falciparum D10 trophozoite lysates; single well.
DPAP1, sequence (Q8IIJ9 whole entry, looked up): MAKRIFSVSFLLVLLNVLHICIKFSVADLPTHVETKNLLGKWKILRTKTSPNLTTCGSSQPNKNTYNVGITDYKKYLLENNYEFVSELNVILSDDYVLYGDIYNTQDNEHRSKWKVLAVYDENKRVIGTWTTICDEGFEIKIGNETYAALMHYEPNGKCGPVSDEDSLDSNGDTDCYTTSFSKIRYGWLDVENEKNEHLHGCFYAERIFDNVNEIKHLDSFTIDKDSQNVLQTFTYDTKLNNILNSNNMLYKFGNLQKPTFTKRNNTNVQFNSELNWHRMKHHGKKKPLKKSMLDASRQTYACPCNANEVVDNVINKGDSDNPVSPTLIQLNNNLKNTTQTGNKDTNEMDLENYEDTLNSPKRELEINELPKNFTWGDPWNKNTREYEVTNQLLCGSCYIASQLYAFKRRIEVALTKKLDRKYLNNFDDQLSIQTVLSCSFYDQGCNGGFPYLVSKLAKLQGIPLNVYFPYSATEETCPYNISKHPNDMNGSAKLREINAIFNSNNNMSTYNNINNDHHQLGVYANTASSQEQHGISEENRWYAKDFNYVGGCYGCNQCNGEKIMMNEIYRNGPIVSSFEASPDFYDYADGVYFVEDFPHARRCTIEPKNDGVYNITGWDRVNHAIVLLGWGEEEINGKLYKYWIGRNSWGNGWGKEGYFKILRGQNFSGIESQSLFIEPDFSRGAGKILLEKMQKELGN
As for `CCN(C1CCCCC1)S(=O)(=O)c1ccc(OC)cc1`, the “% Inhibition @ 10 uM” value is given as -3.44%. As to `CC(C)(C)C(=O)Nc1c2c(nn1-c1cccc(Cl)c1)CS(=O)(=O)C2`, the “% Inhibition @ 10 uM” value was -3.02%. For `CC1CCN(C(=O)c2ccc(N3C(=O)c4ccccc4C3=O)cc2)CC1`, the “% Inhibition @ 10 uM” value is -5.26%.

Take `CN1CCN(c2ccc(NC(=O)c3cc4ccccc4o3)cc2)CC1`: the “% Inhibition @ 10 uM” value is listed as -4.36%. For the molecule `CC(C)Cn1c(CN2C(=O)c3ccccc3C2=O)nc2ccccc2c1=O`, the “% Inhibition @ 10 uM” value is recorded as -0.865%. Consider `Cc1ccc(Cn2c(=O)c3ccccc3n3c(CCC(=O)NCCCOC(C)C)nnc23)cc1`, for which the “% Inhibition @ 10 uM” value came to 5.68%.

Turning to `CCN(CC)CCCNC(=O)c1sc2nc(-c3ccc(F)cc3)cn2c1C`, the “% Inhibition @ 10 uM” value stood at 3.19%. In the case of `CC1=C(C(=O)Nc2ccccc2)C(c2ccncc2)C(C#N)=C(SCC(N)=O)N1` (stereo not drawn), the “% Inhibition @ 10 uM” value was -4.91%.

As to `CCC(Cc1ccccc1)NC(=O)CS(=O)(=O)Cc1nc(-c2cccc(OC)c2)oc1C` (stereo not drawn), the “% Inhibition @ 10 uM” value is -0.138%.

`CCOC(=O)c1c(C)oc2cc(CN(C)C)c(O)cc12`: the “% Inhibition @ 10 uM” value was determined as 3.18%. The result for `CC1=CSC2=NC(=O)/C(=C\c3cccn3-c3ccc(Cl)c(Cl)c3)C(=N)N12` reads -7.16%. Take `CCNC(=O)c1c(N)sc2c1CCCCC2`: the “% Inhibition @ 10 uM” value is 6.47%.

On to `Cc1nc2cc(-c3ccc(Cl)cc3)nn2c(C)c1CCC(=O)NCc1ccco1`, for which the “% Inhibition @ 10 uM” value amounted to 6.1%. Regarding `CCCc1nc(SC)ncc1C(=O)NCCCc1ccccc1`, the “% Inhibition @ 10 uM” value stood at 1.25%. The result for `O=S1(=O)C(/C=N/CCc2ccccc2)=C(O)c2sccc2N1Cc1ccccc1` reads -5.97%; that for `CCN(Cc1ccccc1)C(=O)c1cccc(C)c1`, 2.46%; that for `CC(C)C[C@H](NC(=O)c1cc2c(C(F)(F)F)nn(C)c2s1)C(=O)NCC#N`, -1.82%. With `COc1ccc(OC)c(NC(=O)CN(c2cc(Cl)ccc2C)S(=O)(=O)c2ccccc2)c1`, the “% Inhibition @ 10 uM” value is recorded as -6.39%. In the case of `COc1ccc(OC)c(NS(=O)(=O)c2ccc(Cl)cc2)c1`, the “% Inhibition @ 10 uM” value was 5.06%. On to `CCOC(=O)N1CCC(N2Cc3cccc(C(=O)NC(C)CCc4ccccc4)c3C2=O)CC1` (stereo not drawn), for which the “% Inhibition @ 10 uM” value was -4.14%. With `CCOc1ccc(CCNS(=O)(=O)c2ccc(C(=O)O)cc2)cc1OCC`, the “% Inhibition @ 10 uM” value is given as 2.72%. For the molecule `COC(=O)c1cc(C)nc2c1c(=O)n(C)c(=O)n2C`, the “% Inhibition @ 10 uM” value turned out to be 5.58%. The result for `O=C(/C=C/c1ccc2c(c1)OCO2)N1CCN(c2ccc(F)cc2)CC1` reads 0.0538%. The result for `Cc1ccc(S(=O)(=O)N2CCC(C(=O)NC(C)C)CC2)cc1` reads 0.583%; that for `Cc1ccc(Cl)cc1N(CC(=O)N1CCN(C)CC1)S(C)(=O)=O`, -6.4%; that for `Cc1noc(C(=O)NCC2CCCO2)c1Cl` (stereo not drawn), -7.13%. Consider `Cc1ccc(-c2c(NCCc3sccc3C)c(=O)c2=O)cc1C`, for which the “% Inhibition @ 10 uM” value is given as -1.15%.

Consider `CCOC(=O)Nc1ccc2c(c1)N(C(=O)CN1CCOCC1)c1ccccc1CC2`, for which the “% Inhibition @ 10 uM” value is listed as -0.736%.

As to `COc1ccc(C2CC(=O)C(/C=N/c3ccc(Cl)c(Cl)c3)=C(O)C2)cc1` (stereo not drawn), the “% Inhibition @ 10 uM” value was 5.47%.

On to `CC(C)(C)NS(=O)(=O)c1ccccc1[N+](=O)[O-]`, for which the “% Inhibition @ 10 uM” value was -4.01%.

In the case of `O=C(NCc1ccco1)c1cccc(COc2ccc(Cl)cc2Cl)c1`, the “% Inhibition @ 10 uM” value is given as -3.13%.

In the case of `CC1=C(C(=O)NC(C)CCc2ccco2)C2(CCCCC2)OC1=O` (stereo not drawn), the “% Inhibition @ 10 uM” value was determined as 6.31%. Take `CCOc1ccc(N(CC(=O)N2CCCC2)S(=O)(=O)c2ccc(Cl)cc2)cc1`: the “% Inhibition @ 10 uM” value is -5.92%. The result for `COc1cc2c(cc1OC)CN(C(=O)CSc1nc(-c3cccnc3)ccc1C#N)CC2` reads 3.99%; that for `OCCN(CCO)c1ncnc2sc3c(c12)CCCC3`, -11.1%.

Turning to `COc1ccc(S(=O)(=O)N(C)CC(=O)NCc2ccco2)cc1OC`, the “% Inhibition @ 10 uM” value stood at 1.19%. Turning to `Cc1cc(/C=C2\SC(=O)N(C)C2=O)c(C)n1-c1ccc2c(c1)OCO2`, the “% Inhibition @ 10 uM” value was 0.146%.

As to `CC(C)(O)C(=O)/C=C/c1ccc(Cl)cc1Cl`, the “% Inhibition @ 10 uM” value is -4.21%. As for `CC(C)c1ccc(C2C3=C(O)CC(C)(C)CC3=NC3=C2C(=O)CC(C)(C)C3)cc1` (stereo not drawn), the figure is -0.759%; as for `Cc1cccc(CN2CCN(C(=O)c3ccncc3)CC2)c1`, 5.29%; as for `O=C(CN(c1ccc(Cl)cc1Cl)S(=O)(=O)c1ccccc1)NCc1ccncc1`, 2.63%. Consider `O=C(NCc1cccnc1)c1cccc2ccccc12`, for which the “% Inhibition @ 10 uM” value was -1.68%. In the case of `CC(=O)N1c2ccccc2N=C2CC(c3ccc(C(C)(C)C)cc3)CC(O)=C2C1c1ccncc1` (stereo not drawn), the “% Inhibition @ 10 uM” value turned out to be 3.05%. The result for `CC(C)N(C(=O)Cn1cc(SCC(=O)NCCc2ccccc2)c2ccccc21)C(C)C` reads 2.46%; that for `O=C(CNC(=O)OCc1ccccc1)Oc1c(Cl)c(Cl)c(Cl)c(Cl)c1Cl`, -3.65%.

Consider `O=C(Nc1nc2c(s1)C(=O)CCC2)c1ccccc1`, for which the “% Inhibition @ 10 uM” value is on record as -5.51%. Turning to `Cc1cccc(OCC(=O)Nc2ccc(S(=O)(=O)N3CCC(C)CC3)cc2)c1`, the “% Inhibition @ 10 uM” value is -5.95%. `O=c1onc(-c2cccs2)n1Cc1ccc(F)cc1Cl`: the “% Inhibition @ 10 uM” value is reported as -0.0652%.
